According to the supplement of paper PMC3334620:
The full ranking holds about 33,000 sequences; the median of “E-score (-0.5 to 0.5)” is about -0.017, and the highest 2% start at about 0.3. The list shows a part of the results.

The sequences below were run against T1, Sut1 (UniProt P53032) (assay: PBM E-score (8-mer binding enrichment) (E-score (-0.5 to 0.5)); higher = stronger / more preferred TF binding; most listed sequences are background and not binding sites). Settings: protein concentration: 200 nM; construct: GST-full length.
T1 sequence: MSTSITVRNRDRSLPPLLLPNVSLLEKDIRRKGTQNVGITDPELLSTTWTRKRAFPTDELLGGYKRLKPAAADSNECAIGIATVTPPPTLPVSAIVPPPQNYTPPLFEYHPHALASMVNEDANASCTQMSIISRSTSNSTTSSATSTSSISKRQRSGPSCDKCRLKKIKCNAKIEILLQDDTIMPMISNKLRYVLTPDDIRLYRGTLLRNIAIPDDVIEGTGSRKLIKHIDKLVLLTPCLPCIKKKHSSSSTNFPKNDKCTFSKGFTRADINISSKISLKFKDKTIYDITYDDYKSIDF
Procedure, shortened: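 PURExpress in vitro transcription/translation supplied GST-tagged yeast transcription factors, either full-length or DNA-binding domain. Applied at about 100-200 nM to universal all-10-mer Agilent arrays double-stranded by primer extension, the bound protein was detected with fluorescent anti-GST. E-scores, modified Wilcoxon-Mann-Whitney statistics, were given by the Universal PBM Analysis Suite to ungapped eight-base words pooled with their reverse complements after masliner normalisation.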

Sequence	PBM E-score
GTGCAGCA	-0.231
CATGGGCA	-0.145
AATTCACG	0.046
CCCGTGGC	-0.283
AATCCAAA	0.246
GCCACCTA	-0.214
TAGGACAA	-0.0386
GCAAGTGA	-0.122
AGGTTACA	0.0303
GCTGTTCA	0.0353
GAATACAC	0.0877
ACAGAATA	0.137
GTCTATCA	0.101
CCGGGGAC	-0.122
ACATGATA	0.212
ACAGGAAA	0.145
ACCTCGAA	0.0255
ATTAGCCA	-0.0809
ACATTACC	0.0569
ATTTAAGA	0.142
ACGTAGCC	-0.309
CCCCTCAA	-0.189

Sequence	PBM E-score
AAGGTGTG	-0.0224
GGGCTTAC	-0.129
ACAGGGCT	-0.334
CTACGTCC	-0.15
GTACCCCA	-0.0663
TCCCAAGA	-0.153
GTAATGCA	-0.0341
ACCTACAC	-0.185
GTGATGAA	0.0687
GACCGGCA	-0.308
GTAACGCA	0.021
CCAGAGTC	-0.00662
CCAGCTAA	-0.154
ATGTCTTA	-0.0624
ATTCAGTA	0.175
ACACGGGT	-0.0709
CACATGAC	-0.137
AATAATGT	0.235
CGAACGGA	0.247
ACAAACAT	0.208
AAAAGCTG	-0.15
ATAGTGAA	0.163

Sequence	PBM E-score
CGGACAAC	0.309
CCCGAGCA	-0.101
GAGTACAA	0.171
CATACCCG	-0.11
GACATGGC	-0.144
ACACGCCC	-0.0573
GGAATCAA	0.0788
CCAAGTGC	-0.0206
GACCCGGA	0.204
AACGCGTA	-0.0498
AGAACACG	0.186
ACGCCAAC	-0.0818
ACCTTGCC	-0.0123
TGCTGGAA	-0.0478
GGCCGAGA	0.0849
GTTACTGA	0.148
CAACACAG	-0.037
GGCGTTGA	-0.134
CGGTTGAG	0.0963
GGTACTGA	-0.146
ATGTGCGG	-0.217
ACTATTCC	0.168

Sequence	PBM E-score
GAGTCGCC	-0.166
GGCACTAC	-0.283
CGATTTAG	0.073
GTTCGTTA	0.0988
GCGCTAAA	0.0525
AAGTCGGT	0.0852
CCCTTGGC	-0.202
GTCTGGGA	-0.296
AAATAGAA	0.173
CGAGTAAA	0.125
GGGTAACC	-0.219
AAATATTC	0.207
CTAGGCTA	-0.0601
AGCGGCAC	-0.257
AATCGTAT	0.16
CATGCAGA	-0.15
AGGTGTAG	-0.105
GATATTAC	0.297
AGCGGTGC	-0.0174
CGCGTTTC	-0.0399
CTATACAC	-0.0238
CCTGCCAA	-0.192

Sequence	PBM E-score
AGAGGACG	0.0629
CTACTTGC	-0.12
TATCTCCA	0.191
AGTGCTAG	-0.0637
ACGCTTGC	-0.218
AAAGACGC	0.0162
ACCCCGAA	0.332
AAGTCCTA	0.126
AAACAGGG	-0.136
ACTACCCC	-0.101
ACGATACA	0.0488
GTGAACAA	0.0216
AATCTGTC	0.133
ATGCGTTC	-0.039
AACTAGCT	-0.0237
GAACGGCC	0.00745
ATCGGAGA	0.416
TGTAAAAA	0.235
AACGCTGA	-0.0906
CAGGATGA	-0.163
CAGCGGCG	0.00849
